Experimental data from the supplement of paper PMC4967469.
Lines with a small IC50 respond at low doses; a fit beyond the top or the lowest dose is shown as a bound at that dose. The AUC spans the tested range (256-fold, ending at the top dose) of the same fit; values near 1 show little effect. For part of these data: Any top dose called inferred is not printed in the source and was worked back from the curve model. For part of these data: An entry number marks a drug with two screens in the source, which often give different values.

Experiments:
Experiment in all cases: Viability of human cancer cell lines after 72 h of drug (GDSC screen)
[1] = compound: CC(C)[C@H](C(=O)Nc1ccc(C(=O)NO)cc1)c1ccccc1 [AR-42]; settings: top dose 5.12 µM; top dose inferred
Protocol: (§1)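 Human cancer cell lines in 384-well plates, medium with 10% serum, drug for 72 h over a 256-fold dose range (nine 2-fold or five 4-fold steps up to the top dose). Adherent lines were fixed and stained with the nucleic acid dye Syto60, suspension lines read with resazurin; signal relative to control wells, capped at 0 and 100%. One two-parameter sigmoid per drug and line, fitted in a mixed model over all curves with the slope shared within a line.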

[2] = compound: CS(=O)(=O)N1CCN(Cc2cc3nc(-c4cccc5[nH]ncc45)nc(N4CCOCC4)c3s2)CC1 [GDC0941]; settings: top dose 4 µM; screen: GDSC drug entry 1527; top dose inferred
Protocol: as §1

[3] = compound: C[C@]12O[C@H](C[C@]1(O)CO)n1c3ccccc3c3c4c(c5c6ccccc6n2c5c31)CNC4=O [CEP-701]; settings: top dose 2 µM; top dose inferred
Protocol: as §1

[4] = compound: Cc1ccc(Nc2nccc(N(C)c3ccc4c(C)n(C)nc4c3)n2)cc1S(N)(=O)=O [Pazopanib]; settings: top dose 8 µM
Protocol: as §1

[5] = compound: Cn1cc(C2=C(c3ccc(Cl)cc3Cl)C(=O)NC2=O)c2ccccc21 [SB 216763]; settings: top dose 10 µM; top dose inferred
Protocol: as §1

[6] = compound: CC(C)C[C@@H](C=O)NC(=O)[C@H](CC(C)C)NC(=O)[C@H](CC(C)C)NC(=O)OCc1ccccc1 [MG-132]; settings: top dose 1 µM
Protocol: as §1

[7] = compound: CCN(CC)CCNC(=O)c1c(C)[nH]c(/C=C2\C(=O)Nc3ccc(F)cc32)c1C [Sunitinib]; settings: top dose 8 µM
Protocol: as §1

Cell Line | AUC [1] | IC50 [1] [nM] | AUC [2] | IC50 [2] [nM] | AUC [3] | IC50 [3] [nM] | AUC [4] | IC50 [4] [nM] | AUC [5] | IC50 [5] [nM] | AUC [6] | IC50 [6] [nM] | AUC [7] | IC50 [7] [nM]
HDLM-2 (Hodgkin lymphoma, suspension) | 0.896 | > 5120 | 0.964 | > 4000 | 0.653 | 330 | 0.923 | > 8000 | 0.983 | > 10000 | 0.821 | 569 | 0.821 | 4540
HAL-01 (lymphoblastic leukaemia, suspension) | 0.291 | 89.5 | 0.319 | 83.3 | 0.458 | 97.2 | 0.988 | > 8000 | 0.942 | > 10000 | 0.858 | 675 | 0.731 | 
NKM-1 (acute myeloid leukaemia, suspension) | 0.281 | 75 | 0.641 | 622 | 0.342 | 45 | 0.913 | > 8000 | 0.903 | > 10000 | 0.872 | > 1000 | 0.292 | 127
NU-DUL-1 (B-cell lymphoma, suspension) | 0.256 | 76.4 | 0.965 | > 4000 | 0.401 | 71 | 0.946 | > 8000 | 0.993 | > 10000 | 0.855 | 565 | 0.843 | 4100
EM-2 (chronic myeloid leukaemia, suspension) | 0.41 | 176 | 0.698 | 978 | 0.588 | 224 | 0.947 | > 8000 | 0.929 | > 10000 | 0.854 | 962 | 0.871 | > 8000
HH (T-cell leukaemia, suspension) | 0.371 | 125 | 0.355 | 86.7 | 0.713 | 618 | 0.915 | > 8000 | 0.975 | > 10000 | 0.762 | 473 | 0.82 | 6740
MOLT-4 (lymphoblastic leukaemia, suspension) | 0.332 | 121 | 0.338 | 97.6 | 0.403 | 71.6 | 0.99 | > 8000 | 0.977 | > 10000 | 0.746 | 267 | 0.818 | 3470
KARPAS-299 (anaplastic large cell lymphoma, suspension) | 0.426 | 208 | 0.959 | > 4000 | 0.613 | 241 | 0.966 | > 8000 | 0.992 | > 10000 | 0.876 | 710 | 0.747 | 2190
EoL-1-cell (haematopoietic neoplasm, suspension) | 0.1 | < 20 | 0.863 | 2820 | 0.14 | 11.5 | 0.025 | < 31.2 | 0.955 | > 10000 | 0.959 | > 1000 | 0.023 | < 31.2
BB65-RCC (kidney, adherent) | 0.575 | 532 | 0.672 | 813 | 0.301 | 31.4 | 0.855 | 7990 | 0.981 | > 10000 | 0.718 | 288 | 0.838 | 6620
KGN (ovary, adherent) | 0.462 | 247 | 0.726 | 1280 | 0.507 | 131 | 0.773 | 3780 | 0.97 | > 10000 | 0.811 | 675 | 0.722 | 2470
RPMI-6666 (Hodgkin lymphoma, suspension) | 0.292 | 72.8 | 0.755 | 1610 | 0.582 | 220 | 0.807 | 5120 | 0.978 | > 10000 | 0.821 | 738 | 0.797 | 4690
CAS-1 (glioma, adherent) | 0.673 | 1160 | 0.782 | 2350 | 0.839 | > 2000 | 0.807 | 6050 | 0.978 | > 10000 | 0.583 | 115 | 0.97 | > 8000
VA-ES-BJ (soft tissue, adherent) | 0.81 | 2870 | 0.854 | 3450 | 0.617 | 268 | 0.86 | 7300 | 0.927 | > 10000 | 0.727 | 288 | 0.891 | > 8000
NCI-H2135 (non-small cell lung carcinoma, adherent) | 0.428 | 205 | 0.99 | > 4000 | 0.991 | > 2000 | 0.989 | > 8000 | 0.989 | > 10000 | 0.919 | > 1000 | 0.95 | > 8000
EW-13 (Ewing sarcoma, suspension) | 0.667 | 984 | 0.77 | 1680 | 0.828 | 1410 | 0.89 | > 8000 | 0.982 | > 10000 | 0.978 | > 1000 | 0.954 | > 8000
KS-1 (glioma, adherent) | 0.663 | 1020 | 0.721 | 1250 | 0.639 | 333 | 0.842 | 7770 | 0.947 | > 10000 | 0.509 | 66.4 | 0.68 | 1820
